This is one part of the list.
Each sequence was assayed on PF3D7_0420300 AP2 domain 1 (GST-tagged) (assay: gcPBM binding intensity (ln(normalized median fluorescence intensity)); higher = stronger DNA binding).
Procedure, shortened: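 Binding intensity values are the highest Masliner-normalised natural-log median intensity among replicate spots of either probe orientation. The binding step lasted 1 h in 1× PBS with 1% milk, 0.2 mg/ml BSA, 0.5% salmon testes DNA and 0.03% Triton X-100, using GST-tagged P. falciparum DNA-binding domains expressed in E. coli on an Agilent 4 × 180k array of primer-extended double-stranded 36-bp intergenic genomic probes plus negative controls. Alexa488 anti-GST antibody and a 488 nm scan detected bound protein.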
“AAAAGTAAAAAAAGCACACACGAAAAAAAATAAAAA [CACACA_site5264]” was tested, and the “gcPBM binding intensity (ln)” value was 9.91. For “TCCATAAATAATTGTAGTACACATACTATGTGACAT [XGTACX_site7268]”, the “gcPBM binding intensity (ln)” value was 9.28. With “TATTAAAAAAAAAAATAAAAAAATAAAATAAAATAA [CACACA_negctrl_site580]” the “gcPBM binding intensity (ln)” value was 9. “TTTTTTTTTTTTATTTGTACACATTTTCATATTTTT [XGTACX_site4406]” was tested, and the “gcPBM binding intensity (ln)” value was 9.23. “TATATTTACTCTAAGTGTACATATTATTTTATAATA [XGTACX_site2046]” was tested, and the “gcPBM binding intensity (ln)” value was 9.13. In the case of “TATATATATATGTGCACACATAAAGATATTATTTTT [CACACA_site3733]”, the “gcPBM binding intensity (ln)” value is reported as 9.53. For “TAACACATAAATAAATATATACATATATATAAAATA [CACACA_negctrl_site375]”, the “gcPBM binding intensity (ln)” value was 9.36. With “AATATATATATATATACATGCATATATTCCTTCCTT [TGCATGCA_site890]” the “gcPBM binding intensity (ln)” value was 9.2. With “ATTCTTTTAAACAGTACACACACACCGATATATATA [CACACA_site8213]” the “gcPBM binding intensity (ln)” value was 10. For “AAAAACTTATATGATACACACGATAAACAAAATAAA [CACACA_site1039]”, the “gcPBM binding intensity (ln)” value was 9.73. In the case of “TTTGTGCCTATAAATTAACACACAGAAATATATAGA [CACACA_site8175]”, the “gcPBM binding intensity (ln)” value is reported as 9.26. With “AATATATCATAATGATGTACAAGTAAAACCGTTACA [XGTACX_site4280]” the “gcPBM binding intensity (ln)” value was 9.46. For “GATCTATATATCATTACACACTTGAATTACTTAAAA [CACACA_site21]”, the “gcPBM binding intensity (ln)” value was 9.33. In the case of “CAAAAATACATTATAATAATATGCACAATAATAAAT [XGTACX_negctrl_site263]”, the “gcPBM binding intensity (ln)” value is reported as 9.6. “ATAAAATAAAATTGGTGTACTTTTGATAAAATAAAA [XGTACX_site4264]” was tested, and the “gcPBM binding intensity (ln)” value was 9.12. In the case of “GTGTATTTTGTGCGCACACACATGCAAAAAGAAATA [CACACA_site6660]”, the “gcPBM binding intensity (ln)” value is reported as 9.55. With “GGTAGGTGAATATATACACACATATATTATATATAT [CACACA_site1984]” the “gcPBM binding intensity (ln)” value was 9.53. With “TACACATGTTTAAAATGTACGTTTTATAACACACAC [XGTACX_site8229]” the “gcPBM binding intensity (ln)” value was 9.67. “AAAAAAAATTAAGCATGTATAAATATATATATATAT [CACACA_negctrl_site1540]” was tested, and the “gcPBM binding intensity (ln)” value was 9.24. For “TTTTACAAGTATTGATAAATAAGAAATATATAAAAT [CACACA_negctrl_site529]”, the “gcPBM binding intensity (ln)” value was 8.95. With “AGAGGAAAAATAAAAGGAAAAAAGAAAATAATATTG [CACACA_negctrl_site852]” the “gcPBM binding intensity (ln)” value was 9.13. “ATATATTACAATATATGTACTTAATTTGCTTAAATA [XGTACX_site7912]” was tested, and the “gcPBM binding intensity (ln)” value was 9.14. “ATAATATTTTAGAGCAGTACACTTTTATATTTATTG [XGTACX_site5728]” was tested, and the “gcPBM binding intensity (ln)” value was 9.41. For “TAAAACAGAATGAGGAGTACAAAAAGAAGAAAAGGG [XGTACX_site1246]”, the “gcPBM binding intensity (ln)” value was 9.76. For “AAAATAAATATTACATGTACATATATATATATATAT [XGTACX_site8492]”, the “gcPBM binding intensity (ln)” value was 9.13. In the case of “GTAATCCACAAACACACACACATACACATATATATA [CACACA_site2728]”, the “gcPBM binding intensity (ln)” value is reported as 10.1. In the case of “AAAAAAACAACATGCACACGCACACCCAAAAAAAGC [CACACA_site72]”, the “gcPBM binding intensity (ln)” value is reported as 9.98. “ATCATTTTTAATAAATGTACAAGTTTTAAAAAAAAA [XGTACX_site7340]” was tested, and the “gcPBM binding intensity (ln)” value was 8.83. For “AGGAGGAACAAACAAAACAATAAAAATTATAATAAA [GTGCAC_negctrl_site206]”, the “gcPBM binding intensity (ln)” value was 9.43. In the case of “AAAAGACATTTTTTTTTATAAATACACACGTACGTG [TGCATGCA_negctrl_site281]”, the “gcPBM binding intensity (ln)” value is reported as 9.16. With “TTCAAAGACACAATCACACACATACATAAATATACA [CACACA_site687]” the “gcPBM binding intensity (ln)” value was 9.84. For TTCCAAGAAATAATAGTGCATTATTCATTTTAATAA, the “gcPBM binding intensity (ln)” value was 8.98. For “AATATACATAACAAGGTGCAAAAAATATTGTTCATA [GTGCAC_site9499]”, the “gcPBM binding intensity (ln)” value was 9.5. “TTATTATTATGATTATTATGATGATTATACAACTGT [TGCATGCA_negctrl_site241]” was tested, and the “gcPBM binding intensity (ln)” value was 9.29. With “ATTATATTAATTTATAGTACAATATTTATATATATG [XGTACX_site4668]” the “gcPBM binding intensity (ln)” value was 9.2. “TATATATTACTTTTTTGTACGAATTTTACAACTACG [XGTACX_site3473]” was tested, and the “gcPBM binding intensity (ln)” value was 9.28. For “TATTAAAATATTCTCACACACCAAAATATGTATGTA [CACACA_site6565]”, the “gcPBM binding intensity (ln)” value was 9.36. “AAAAAAAAAAAAAAAAAAAGAAAAGAAAATAGGGTT [GTGCAC_negctrl_site421]” was tested, and the “gcPBM binding intensity (ln)” value was 9.4. In the case of “TTTCCGGTAATATGGAGATATATGTGGGTTTTTTTT [GTGCAC_negctrl_site374]”, the “gcPBM binding intensity (ln)” value is reported as 9.48. For “ACAAAATTTACAAAATGTACAAAGTATGTGTTTTAT [XGTACX_site6462]”, the “gcPBM binding intensity (ln)” value was 9.22. “AGAAAAAAGAGGGATACACACAAACATATATTTATA [CACACA_site7122]” was tested, and the “gcPBM binding intensity (ln)” value was 9.95. With “ATATTTTTTTTTTTCACACACATTTATATTGTATTA [CACACA_site5695]” the “gcPBM binding intensity (ln)” value was 9.9. “GATTAAAATCAAAGGTGTACGCACAAATAAGTCCCA [XGTACX_site4360]” was tested, and the “gcPBM binding intensity (ln)” value was 9.3. “CACCCTTTGTTTTAGAGTACATATGTATATACGTAA [XGTACX_site7964]” was tested, and the “gcPBM binding intensity (ln)” value was 9.14. With “TATATATATTTATGTACACACATATATACCTTTCAT [CACACA_site5479]” the “gcPBM binding intensity (ln)” value was 9.6. “TATTAATTATAAGATGCATGTGCAAAAATATGTTCC [TGCATGCA_site51]” was tested, and the “gcPBM binding intensity (ln)” value was 9.37. “TTTCTTTGTATTTATAGTACATATTTTAATAACTGC [XGTACX_site6673]” was tested, and the “gcPBM binding intensity (ln)” value was 9.1. In the case of “ATAATATTTTATTATACATGCAAATTATTATATATA [TGCATGCA_site40]”, the “gcPBM binding intensity (ln)” value is reported as 9.09. “TAAAAATTAAAAAGGGTGCAAAAAAAAAAAAAAAAA [GTGCAC_site9733]” was tested, and the “gcPBM binding intensity (ln)” value was 8.83. For “TATATTTATTTTTAATGTACATATTTAAGAAAACTA [XGTACX_site4920]”, the “gcPBM binding intensity (ln)” value was 8.88. For “AACTTGTATTTATACACACACACACTAGCTTTTTTT [CACACA_site5132]”, the “gcPBM binding intensity (ln)” value was 10.2. “AGAATTAAAAACAGTTGTACAAAAAGTTGTATAAAT [XGTACX_site411]” was tested, and the “gcPBM binding intensity (ln)” value was 9.64. “AGTAATAAATTTTATACATGCATAAAAAAAAAAAAA [TGCATGCA_site661]” was tested, and the “gcPBM binding intensity (ln)” value was 9.11. With “TATAGCTTTCATTATACACACATCAAAAATTTAAAT [CACACA_site227]” the “gcPBM binding intensity (ln)” value was 9.38. “TTAAAAATCATTTAAGAACACACAAATATTTCCATT [CACACA_site8418]” was tested, and the “gcPBM binding intensity (ln)” value was 9.17. For “GCCATTAATTTATACACACACATTATAACTTTTTAT [CACACA_site6492]”, the “gcPBM binding intensity (ln)” value was 10.

Reference: the supplement of paper PMC11417369
